First the molecules themselves.
T1: ARF4 (Arabidopsis thaliana) (UniProt Q9ZTX9)
T1 sequence: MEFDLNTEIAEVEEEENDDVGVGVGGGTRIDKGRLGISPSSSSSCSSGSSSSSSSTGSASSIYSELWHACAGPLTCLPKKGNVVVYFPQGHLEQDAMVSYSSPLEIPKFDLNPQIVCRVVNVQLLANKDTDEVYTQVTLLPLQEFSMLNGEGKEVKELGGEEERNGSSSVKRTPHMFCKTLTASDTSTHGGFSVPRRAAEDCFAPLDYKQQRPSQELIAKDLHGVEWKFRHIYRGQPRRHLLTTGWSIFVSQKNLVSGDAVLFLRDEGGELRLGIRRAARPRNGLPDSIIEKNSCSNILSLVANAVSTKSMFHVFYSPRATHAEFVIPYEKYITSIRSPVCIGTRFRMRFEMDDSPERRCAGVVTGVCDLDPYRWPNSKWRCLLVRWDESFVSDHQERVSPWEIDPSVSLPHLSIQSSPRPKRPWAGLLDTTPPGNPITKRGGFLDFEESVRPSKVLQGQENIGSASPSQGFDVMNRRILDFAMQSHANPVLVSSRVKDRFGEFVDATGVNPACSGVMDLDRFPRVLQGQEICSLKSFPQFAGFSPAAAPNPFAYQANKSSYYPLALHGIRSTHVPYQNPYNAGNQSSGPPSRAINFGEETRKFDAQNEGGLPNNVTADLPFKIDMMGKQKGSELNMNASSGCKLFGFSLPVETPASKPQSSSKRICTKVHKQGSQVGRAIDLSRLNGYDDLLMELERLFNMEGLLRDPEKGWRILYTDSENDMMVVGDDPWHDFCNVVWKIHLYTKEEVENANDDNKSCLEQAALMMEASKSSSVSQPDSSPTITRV

T2: ARF7 (Arabidopsis thaliana) (UniProt P93022)
T2 sequence: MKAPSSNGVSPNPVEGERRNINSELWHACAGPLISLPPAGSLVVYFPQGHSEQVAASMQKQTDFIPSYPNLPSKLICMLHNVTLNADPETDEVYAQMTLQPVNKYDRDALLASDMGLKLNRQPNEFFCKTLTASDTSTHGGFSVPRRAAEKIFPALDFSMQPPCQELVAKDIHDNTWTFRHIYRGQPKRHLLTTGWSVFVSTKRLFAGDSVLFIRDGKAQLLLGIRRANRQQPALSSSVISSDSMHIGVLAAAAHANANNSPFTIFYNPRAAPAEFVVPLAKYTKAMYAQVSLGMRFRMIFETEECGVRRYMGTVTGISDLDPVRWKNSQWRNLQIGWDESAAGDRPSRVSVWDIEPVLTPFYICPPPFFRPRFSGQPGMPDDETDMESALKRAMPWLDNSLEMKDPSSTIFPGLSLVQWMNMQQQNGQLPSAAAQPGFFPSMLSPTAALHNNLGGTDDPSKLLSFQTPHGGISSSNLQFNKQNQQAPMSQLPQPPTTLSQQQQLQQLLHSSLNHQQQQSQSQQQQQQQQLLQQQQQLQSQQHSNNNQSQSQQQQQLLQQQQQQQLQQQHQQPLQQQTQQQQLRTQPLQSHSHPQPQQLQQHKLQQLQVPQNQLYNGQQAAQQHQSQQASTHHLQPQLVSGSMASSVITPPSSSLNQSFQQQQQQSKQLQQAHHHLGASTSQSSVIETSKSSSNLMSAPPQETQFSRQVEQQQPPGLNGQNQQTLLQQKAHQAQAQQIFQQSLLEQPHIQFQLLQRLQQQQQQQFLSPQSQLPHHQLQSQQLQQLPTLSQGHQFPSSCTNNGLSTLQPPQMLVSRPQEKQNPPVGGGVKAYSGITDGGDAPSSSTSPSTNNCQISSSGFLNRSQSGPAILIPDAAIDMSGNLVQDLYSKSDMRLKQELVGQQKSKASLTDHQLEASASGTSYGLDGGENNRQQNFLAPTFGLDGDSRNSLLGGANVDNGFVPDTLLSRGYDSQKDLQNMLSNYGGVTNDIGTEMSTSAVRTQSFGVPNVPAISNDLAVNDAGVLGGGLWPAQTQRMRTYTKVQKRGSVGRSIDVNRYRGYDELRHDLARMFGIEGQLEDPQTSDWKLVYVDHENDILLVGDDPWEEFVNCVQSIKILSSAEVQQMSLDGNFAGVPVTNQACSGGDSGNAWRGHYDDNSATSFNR

T3: ARF3 (Arabidopsis thaliana) (UniProt O23661)
T3 sequence: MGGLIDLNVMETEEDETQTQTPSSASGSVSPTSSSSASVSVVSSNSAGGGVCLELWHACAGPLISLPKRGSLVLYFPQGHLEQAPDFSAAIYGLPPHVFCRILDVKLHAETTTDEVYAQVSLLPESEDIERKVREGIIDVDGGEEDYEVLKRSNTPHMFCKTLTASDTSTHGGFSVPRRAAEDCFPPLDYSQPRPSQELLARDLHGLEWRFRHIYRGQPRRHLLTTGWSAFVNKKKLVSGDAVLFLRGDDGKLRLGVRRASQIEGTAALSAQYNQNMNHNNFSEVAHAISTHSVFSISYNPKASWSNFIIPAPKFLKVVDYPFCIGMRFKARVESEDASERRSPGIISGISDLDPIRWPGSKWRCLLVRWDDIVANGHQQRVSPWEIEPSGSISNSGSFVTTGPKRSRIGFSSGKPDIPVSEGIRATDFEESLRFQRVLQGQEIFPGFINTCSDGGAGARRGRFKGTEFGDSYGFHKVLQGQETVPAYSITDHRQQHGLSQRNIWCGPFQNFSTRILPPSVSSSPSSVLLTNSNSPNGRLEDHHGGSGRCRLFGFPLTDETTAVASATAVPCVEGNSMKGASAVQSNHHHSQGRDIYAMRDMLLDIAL

B1: Aux/IAA11 (protein, UniProt Q38829 1-246)
chain: MEGGSASGSASALSNDENLVVSCEDSSSPIGNELELGLTLSLGRKGYRDCRVYADDSSSSSSSSSLSRASVIAGIKRTADSMAATSGQVVGWPPIRTYRMNSMVNQAKASATEDPNLEISQAVNKNRSDSTKMRNSMFVKVTMDGIPIGRKIDLNAHKCYESLSNTLEEMFLKPKLGSRTLETDGHMETPVKILPDGSSGLVLTYEDKEGDWMLVGDVPWGMFIGSVRRLRIMKTSEATGKAQMIL
B2: Aux/IAA32 (protein, UniProt Q8RYC6 1-191)
chain: MDPNTPADFFKGSSKFHTYYSQTKKGGGVIDLGLSLRTIQHETYLPPARMIGLDGYGELIDWSQPSYNSITQLKSEDTGHQRLAQGYYNNEGESRGKYAYVKVNLDGLVVGRKVCLVDQGAYATLALQLNDMFGMQTVSGLRLFQTESEFSLVYRDREGIWRNVGDVPWKEFVESVDRMRIARRNDALLPF
B3: Aux/IAA13 (protein, UniProt Q38831 1-247)
chain: MITELEMGKGESELELGLGLSLGGGTAAKIGKSGGGGAWGERGRLLTAKDFPSVGSKRAADSASHAGSSPPRSSSQVVGWPPIGSHRMNSLVNNQATKSAREEEEAGKKKVKDDEPKDVTKKVNGKVQVGFIKVNMDGVAIGRKVDLNAHSSYENLAQTLEDMFFRTNPGTVGLTSQFTKPLRLLDGSSEFVLTYEDKEGDWMLVGDVPWRMFINSVKRLRVMKTSEANGLAARNQEPNERQRKQPV
B4: Aux/IAA10 (protein, UniProt Q38828 1-261)
chain: MNGLQEVCSSSGSVMIGLPAEEDENAAHSSEDSSCPDESVSETELDLALGLSIGRRKVRSSLSSSSSSLTRESGTKRSADSSPAAASNATRQVAVGWPPLRTYRINSLVNQAKSLATEGGLSSGIQKETTKSVVVAAKNDDACFIKSSRTSMLVKVTMDGVIIGRKVDLNALDSYAALEKTLDLMFFQIPSPVTRSNTQGYKTIKETCTSKLLDGSSEYIITYQDKDGDWMLVGDVPWQMFLGSVTRLRIMKTSIGAGVGK
B5: Aux/IAA15 (protein, UniProt Q9C966 1-179)
chain: MSPEEYVRVWPDSGDLGGTELTLALPGTPTNASEGPKKFGNKRRFLETVDLKLGEAHENNYISSMVTNDQLVGWPPVATARKTVRRKYVKVALDGAAYLRKVDLGMYDCYGQLFTALENMFQGIITICRVTELERKGEFVATYEDKDGDLMLVGDVPWMMFVESCKRMRLMKTGDAIGL
B6: Aux/IAA12 (protein, UniProt Q38830 1-239)
chain: MRGVSELEVGKSNLPAESELELGLGLSLGGGAWKERGRILTAKDFPSVGSKRSAESSSHQGASPPRSSQVVGWPPIGLHRMNSLVNNQAMKAARAEEGDGEKKVVKNDELKDVSMKVNPKVQGLGFVKVNMDGVGIGRKVDMRAHSSYENLAQTLEEMFFGMTGTTCREKVKPLRLLDGSSDFVLTYEDKEGDWMLVGDVPWRMFINSVKRLRIMGTSEASGLAPRRQEQKDRQRNNPV
B7: Aux/IAA6 (protein, UniProt Q38824 1-189)
chain: MAKEGLALEITELRLGLPGDNYSEISVCGSSKKKKRVLSDMMTSSALDTENENSVVSSVEDESLPVVKSQAVGWPPVCSYRRKKNNEEASKAIGYVKVSMDGVPYMRKIDLGSSNSYINLVTVLENLFGCLGIGVAKEGKKCEYIIIYEDKDRDWMLVGDVPWQMFKESCKRLRIVKRSDATGFGLQQD
B8: Aux/IAA8 (protein, UniProt Q38826 1-321)
chain: MSYRLLSVDKDELVTSPCLKERNYLGLSDCSSVDSSTIPNVVGKSNLNFKATELRLGLPESQSPERETDFGLLSPRTPDEKLLFPLLPSKDNGSATTGHKNVVSGNKRGFADTWDEFSGVKGSVRPGGGINMMLSPKVKDVSKSIQEERSHAKGGLNNAPAAKAQVVGWPPIRSYRKNTMASSTSKNTDEVDGKPGLGVLFVKVSMDGAPYLRKVDLRTYTSYQQLSSALEKMFSCFTLGQCGLHGAQGRERMSEIKLKDLLHGSEFVLTYEDKDGDWMLVGDVPWEIFTETCQKLKIMKGSDSIGLAPGAVEKSKNKERV
B9: Aux/IAA1 (protein, UniProt P49677 1-168)
chain: MEVTNGLNLKDTELRLGLPGAQEEQQLELSCVRSNNKRKNNDSTEESAPPPAKTQIVGWPPVRSNRKNNNNKNVSYVKVSMDGAPYLRKIDLKMYKNYPELLKALENMFKFTVGEYSEREGYKGSGFVPTYEDKDGDWMLVGDVPWDMFSSSCQKLRIMKGSEAPTAL
B10: Aux/IAA9 (protein, UniProt Q38827 1-338)
chain: MSPEEELQSNVSVASSSPTSNCISRNTLGGLKEHNYLGLSDCSSVGSSTLSPLAEDDKATISLKATELTLGLPGSQSPARDTELNLLSPAKLDEKPFFPLLPSKDEICSSSQKNNASGNKRGFSDTMDQFAEAKSSVYTEKNWMFPEAAATQSVTKKDVPQNIPKGQSSTTNNSSSPPAAKAQIVGWPPVRSYRKNTLATTCKNSDEVDGRPGSGALFVKVSMDGAPYLRKVDLRSYTNYGELSSALEKMFTTFTLGQCGSNGAAGKDMLSETKLKDLLNGKDYVLTYEDKDGDWMLVGDVPWEMFIDVCKKLKIMKGCDAIGLAAAPRAMEKSKMRA

Results are given in words; binding and its absence hold for the method and conditions named. Some entries that bind do so weakly or less than the wild type.

The first assay concerns the target T1, ARF4 (Arabidopsis thaliana). Kind of assay: two-hybrid; S. cerevisiae AH109 co-transformed with pGBKT7-ARF (bait) and pGADT7-Aux/IAA (prey); growth on SD/-Ade-His-Leu-Trp against SD/-Leu/-Trp; at least 10 independent colonies; serial dilutions for strength.
Take B1: the binding result is recorded as “binds”.

Turning to B2, the binding result was “binds”.

For B3, the binding entry was “binds”.

For the molecule B4, the binding result is “binds”.

Turning to B5, the binding result is recorded as “binds”.

On to B6, for which the binding result is “binds”.

Turning to B7, the binding entry is given as “binds”.

Take B8: the binding result is “binds”.

As to B9, the binding entry is listed as “binds”.

Take B10: the binding result was “binds”.

The next assay deals with T2, ARF7 (Arabidopsis thaliana). Described as above.
B1: the binding result is recorded as “binds”.

B2: the binding result was “binds”.

On to B3, for which the binding result is recorded as “binds”.

B4: the binding result was “binds”.

Take B5: the binding result is reported as “binds”.

For B6, the binding entry is “binds”.

Turning to B7, the binding entry is “binds”.

For B8, the binding result is listed as “binds”.

On to B9, for which the binding result was “binds”.

In the case of B10, the binding entry is “binds”.

A further assay addresses T3, ARF3 (Arabidopsis thaliana). Described as above.
Consider B1, for which the binding result is on record as “no binding”.

Take B2: the binding result is listed as “no binding”.

In the case of B3, the binding result was “no binding”.

On to B4, for which the binding result is recorded as “no binding”.

For the molecule B5, the binding entry is “no binding”.

Turning to B6, the binding entry was “no binding”.

Regarding B7, the binding result is “no binding”.

Take B8: the binding result is “no binding”.

Turning to B9, the binding entry is “no binding”.

For B10, the binding entry is on record as “no binding”.

Source of the values: article PMC4274898.
